# The whole screen tested about 44,000 compounds, of which about 340 (0.77%) were called active. Not shown: some 5% with an inconclusive outcome. Calls follow the shape of the dose curve; as a rule, active = well fitted inhibition curve with a large enough effect; inconclusive = small, poorly fitted or top-dose-only effect; inactive = flat fitted curve, though single readings scatter. The list shows a part of the results.
# Assay: Acumen qHTS Assay for Inhibitors of the mTORC1 Signaling Pathway in MEF (Tsc2-/-, p53-/-) Cells: Sytravon; also: nearly all actives have a fitted effect of over 50% in size;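 as to activity change, negative = inhibition: plate controls were DMSO for no effect and rapamycin for full effect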
# Conditions: phospho-rpS6 immunofluorescence/PI, 24 h; series mostly up to 38.3 µM; activity change, negative = inhibition: at the top concentration
# In short: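 Immunofluorescence of rpS6 phosphorylation in Tsc2-/-, p53-/- MEFs after 24 h compound exposure, normalized to propidium iodide signal. Activity is expressed as % positive cells, thresholded with 7.5 nM rapamycin.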
# Potency is read from the fitted curve at half-maximal effect.
Compound,"activity change, negative = inhibition",Potency
Cc1nc(-c2ccc(C)c(S(=O)(=O)N3CCC(C(=O)NCc4ccc(Cl)cc4)CC3)c2)no1,inactive: -1.64%,–
COc1ccc(CCNC(=O)C2CCCN(c3nc4c(C)cc(C)cc4s3)C2)cc1OC (stereo unspecified),inactive: -4.67%,–
COc1ccc(C2=C(C)C(=O)N(Cc3ccc(C(=O)NCc4ccc(C)cc4)cc3)S2(=O)=O)cc1,inactive: 0.152%,–
Cc1ccc(S(=O)(=O)C(CNC(=O)c2ccccc2F)c2cccs2)cc1 (stereo unspecified),inactive: 0.0346%,–
Cc1cccc(CSc2nc3c(c(=O)[nH]2)C(c2cccc(O)c2)CC(=O)N3)c1 (stereo unspecified),inactive: -0.356%,–
CCOC(=O)c1c(NC(=O)c2cc(C(C)C)on2)sc(C)c1C,inactive: -10.3%,–
CCCCC(CC)CNC(=O)c1ccc2c(=O)n(Cc3ccc(OC)cc3)c(=O)[nH]c2c1 (stereo unspecified),inactive: -24%,–
Cn1nc(C(=O)NCc2ccc(Cl)cc2)c2c1-c1ccccc1SC2,inactive: 1.19%,–
Cc1cc(=O)n2nc(N3CCC(C(=O)Nc4ccc(C)c(Cl)c4)CC3)sc2n1,inactive: 0.689%,–
Cc1ccc(N(Cc2cccs2)C(=O)c2ccc(Br)o2)cc1,inactive: 0.147%,–
COc1ccc(CNC(=O)Cc2c(C)c3c(cc(C)c4c(C)c(C)oc43)oc2=O)cc1,inactive: 0.587%,–
CCSc1ncc(Cl)c(C(=O)Nc2nc3ccc(OC)cc3s2)n1,inactive: 3.69%,–
CCc1nonc1NC(=O)c1oc2ccccc2c1C,inactive: -3.89%,–
COc1ccc(CNC(=O)CCS(=O)(=O)c2ccc3c(c2)oc(=O)n3C)cc1,inactive: 6.72%,–
Cc1ccc(CNC(=O)c2ccc3c(O)c(S(=O)(=O)c4ccccc4)c(=O)[nH]c3c2)cc1,inactive: -7.6%,–
CCOC(=O)N1CCC(NC(=O)c2ccc3c(c2)N(Cc2ccc(F)cc2)C(=O)c2ccccc2S3(=O)=O)CC1,inactive: 2.01%,–
CCOc1ccc(NC(=O)C(NS(=O)(=O)c2ccc3c(c2)CCN3C(C)=O)C(C)C)cc1 (stereo unspecified),inactive: 0.618%,–
CCOc1ccccc1NC(=O)c1nnn(CC(=O)Nc2ccc(OC)c(OC)c2)c1N,inactive: 2.82%,–
COc1ccc(OC)c(C(C)NC(=O)Cn2c(=O)cc(C)c3c(C)nn(-c4ccc(C)cc4)c32)c1 (stereo unspecified),inactive: 2.69%,–
Cc1ccc(C)c(N2CCN(Cc3csc(C)c3C)CC2)c1,inactive: 2.05%,–
COc1ccccc1-c1cc(C(=O)N2CCCCC2C)no1 (stereo unspecified),inactive: -5.9%,–
Nc1c(-c2nc(-c3cccs3)no2)nnn1-c1cccc(Cl)c1,inactive: 0.534%,–
COc1ccc(CNC(=O)c2nn(-c3ccccc3C)nc2CO)cc1,inactive: 0.175%,–
CCc1ccc(Nc2ncnc3c2cnn3-c2cc(Cl)ccc2C)cc1,inactive: -15.3%,–

Compound,"activity change, negative = inhibition",Potency
COc1cccc(CNC(=O)C(NS(=O)(=O)c2ccc3c(c2)CCN3C(C)=O)C(C)C)c1 (stereo unspecified),inactive: -12.2%,–
CCn1cc(C(=O)OCC(=O)Nc2ccc(F)cc2F)c(=O)c2ccc(C)nc21,inactive: 5.35%,–
COC(=O)c1ccc(Cn2c(=O)cc(C(F)(F)F)c3c(C)nn(C)c32)cc1,inactive: 0.028%,–
CCCn1c2ccccc2c2cnn(CC(=O)NCCc3ccccc3)c(=O)c21,inactive: 3.69%,–
CCOc1ccc(S(=O)(=O)N(CC(=O)NCCSc2ccccc2)c2ccccc2)cc1,inactive: -4.18%,–
O=C(Cn1c2ncccc2c(=O)n1-c1ccccc1)Nc1ccc(F)c(F)c1,inactive: -13.9%,–
Cc1ccccc1Cn1c(=O)n(CCc2ccccc2)c(=O)c2ccccc21,inactive: -2.06%,–
CCc1ccccc1NC(=O)NCc1ccc2c(c1)CCN2C(=O)c1ccccc1,inactive: -7.05%,–
O=C(Nc1ccccc1C(=O)OCc1cc(=O)n2c3c(sc2n1)CCCC3)c1cccc(Cl)c1,inactive: 0%,–
CCCn1ccc2c(OCC(=O)NCc3ccccc3Cl)cccc2c1=O,inactive: 1.81%,–
O=C(CSc1nccn1Cc1ccccc1)NCc1ccccc1Cl,inactive: -20.5%,–
Cc1cc(C)nc(NS(=O)(=O)c2ccc(NC(=O)COc3ccc(C(C)(C)C)cc3)cc2)n1,inactive: -10.6%,–
CCOC(=O)CC(NC(=O)N1CCC(CN2CCC(C)CC2)CC1)c1ccccc1 (stereo unspecified),inactive: -0.0457%,–
CC(C)Cn1cc(NC(=O)N2CCN(c3ccccc3F)CC2)c2ccccc2c1=O,inactive: -2.87%,–
Cc1cccc(C)c1Nc1c(-c2ccsc2)nc2ccc(Cl)cn12,inactive: -14.1%,–
COc1ccc(OC)c(CCNC(=O)c2cnn(-c3ccccc3)c2C2CCN(C(=O)OC(C)(C)C)CC2)c1,inactive: -3.56%,–
COc1ccc(-c2cn3nc(N4CCCC(C(=O)NCc5ccccc5Cl)C4)sc3n2)cc1 (stereo unspecified),inactive: 2.19%,–
Cc1cccc(CNC(=O)CCn2ccc3cc(S(=O)(=O)N4CCCC4)ccc32)c1,inactive: -6.77%,–
COc1cc(OC)cc(N2CCN(S(=O)(=O)c3ccc(-n4cnnn4)cc3)CC2)c1,inactive: -3.74%,–
O=c1c(N2CCN(c3cccc(C(F)(F)F)c3)CC2)csc2ccc(Cl)cc12,inactive: 2.58%,–
Cc1ccccc1CSc1nc2c(sc3ccccc32)c(=O)n1CCCOC(C)C,inactive: 1.22%,–
COC(=O)c1cc2oc3ccccc3c2n1Cc1cc(C)ccc1C,inactive: -0.285%,–
Cc1nn(C)c2c1c(-c1ccccc1)cc(=O)n2C(C)C(=O)NCc1ccc(F)cc1 (stereo unspecified),inactive: 3.77%,–
O=C1CC(c2ccccc2)Cc2[nH]c(=O)c(-c3nc(-c4ccc(Cl)cc4)cs3)cc21 (stereo unspecified),–,active: 5.85 µM

Compound,"activity change, negative = inhibition",Potency
CCN1CCN(C(c2cccc(F)c2)c2c(O)cc(C)n(Cc3ccco3)c2=O)CC1 (stereo unspecified),inactive: 10.7%,–
CCSc1nnc2c(n1)OC(CC)N(C(C)=O)c1ccccc1-2 (stereo unspecified),inactive: -0.189%,–
Cc1ccc(-n2nnnc2CNC(=O)C(C)C)cc1C,inactive: -0.614%,–
CC(=O)c1ccc(N2CCN(S(=O)(=O)c3ccc4[nH]c5c(c4c3)CCCC5)CC2)cc1,inactive: 0.534%,–
O=C(NCCC1=CCCCC1)c1ccc2c(c1)ncn2-c1ccc(F)c(F)c1,inactive: -1.81%,–
O=C(NCc1cccc(F)c1)c1cccc(NC(=O)c2nsc3ccccc23)c1,inactive: -8.55%,–
COc1ccc(OC)c(C2c3c(oc4ccc(C)cc4c3=O)C(=O)N2CCCN(C)C)c1 (stereo unspecified),inactive: -1.36%,–
CCc1ccc(Nc2nc(N)nc(CSc3nc4ccccc4s3)n2)cc1,inactive: -11.1%,–
CCN(Cc1ccccc1)Cc1c(O)ccc2c(=O)c(-c3ccccc3Cl)c(C(F)(F)F)oc12,inactive: -0.412%,–
CC(=O)Nc1cccc(NC(=O)c2c(-c3ccccc3)c(-c3ccccc3)nn(C)c2=O)c1,inactive: 5.66%,–
CCc1ccccc1NS(=O)(=O)c1ccc2c(c1)OCC(C(=O)N1CCCC1)O2 (stereo unspecified),inactive: -2.08%,–
CCCN(CCC)C(=O)CSc1nc2sc3c(c2c(=O)n1-c1ccccc1)CCN(C(C)=O)C3,inactive: 0%,–
CCOCc1cc(CN2CCN(c3cccc(Cl)c3)CC2)c(O)c2ncccc12,–,active: 11.7 µM
COc1cccc(CNC(=O)C2CCN(c3nnc(-n4c(C)ccc4C)s3)CC2)c1,inactive: 0.985%,–
Cc1cccc(-n2ncc3c(NC4CCCC4)ncnc32)c1,inactive: -1.07%,–
CCc1ccc(-n2nc3ccc(NC(=O)c4ccc(C#N)cc4F)cc3n2)cc1,inactive: -0.702%,–
Fc1ccc(-c2cn3cc(Cc4ccc(Cl)cc4)sc3n2)cc1,inactive: -20.3%,–
CCC(CC)C(=O)Nc1cccc(-c2nc3ccccc3s2)c1,inactive: 0%,–
CCOc1ccc(-c2nnc(SCC(=O)NCc3ccc(C)cc3)nc2-c2ccc(OCC)cc2)cc1,inactive: -7.64%,–
CCOc1ccccc1C1CC(=O)Oc2c1c(=O)n(C)c1ccccc21 (stereo unspecified),inactive: -8.45%,–
Cc1ccc(Cl)cc1NC(=O)Cn1c(=O)c2ccccc2n2nncc12,inactive: -3.51%,–
Cc1ccccc1-c1nc2cc(NC(=O)COc3ccc(F)cc3)ccc2o1,inactive: -10.5%,–
CC1=C(C(=O)Nc2ccc(C)cc2C)C(c2ccccc2)n2ncc(C(=O)Nc3ccccc3)c2N1 (stereo unspecified),inactive: -7.16%,–
CCOC(=O)c1c(-c2ccccc2)csc1NC(=O)c1cc(-c2ccc(Cl)cc2)on1,inactive: -8.43%,–

Compound,"activity change, negative = inhibition",Potency
Cc1c(CC(=O)NCCc2ccc(Cl)cc2)c(=O)oc2c(C)c3occ(C(C)(C)C)c3cc12,inactive: -1.4%,–
Cc1ccc(NC(=O)C2CCCN(S(=O)(=O)c3cccc4cccnc34)C2)c(C)c1 (stereo unspecified),inactive: -18.6%,–
CCOC(=O)c1sc(NC(=O)c2cc(-c3ccc(F)cc3)on2)c(C(=O)OCC)c1C,inactive: -0.526%,–
COC(=O)c1ccc2c(=O)n(CCCCCC(=O)N3CCN(c4ccc(OC)cc4)CC3)c(=O)[nH]c2c1,inactive: -1.18%,–
CCOC(=O)CSc1nc2ccc(NC(=O)c3ccccc3F)cc2s1,inactive: -1.2%,–
CCS(=O)(=O)c1nc(S(=O)(=O)c2ccc(Cl)cc2)c(NCc2ccccc2Cl)s1,inactive: -15.5%,–
CCOc1ccc(NC(=O)CN(C)S(=O)(=O)c2cnc[nH]2)cc1,inactive: 0.0857%,–
O=C(CSc1nnc2[nH]c(=O)cc(-c3ccccc3)n12)Nc1cc(C(F)(F)F)ccc1Cl,inactive: -6.65%,–
COc1ccc(NC(=O)NC(C)c2c(-n3cccc3)sc3c2CCN(C)C3)c(OC)c1 (stereo unspecified),inactive: 0.156%,–
Nc1c(C(=O)Nc2cccc(C(F)(F)F)c2)c2ccccn2c1C(=O)c1ccccc1,inactive: -3.76%,–
CC(=O)Nc1nonc1-c1nc2ccccc2n1Cc1ccccc1Br,inactive: -24%,–
COc1cc2c(cc1OC)C(COc1ccc3c(C)cc(=O)oc3c1)N(C(=O)CC(C)C)CC2 (stereo unspecified),inactive: -14.4%,–
Cc1ccc2oc(-c3cc(NC(=O)/C=C/c4ccco4)ccc3Cl)nc2c1,inactive: 12.5%,–
Brc1ccc2nc(SCCOc3ccccc3)[nH]c2c1,inactive: -18.2%,–
Cc1ccc2c(c1)N(C(=O)Nc1cccc3c1CCCC3)CC(C)O2 (stereo unspecified),inactive: -0.946%,–
COC(=O)c1cc(NC(=O)c2ccc(-c3ccc(Cl)cc3Cl)o2)cc(C(=O)OC)c1,inactive: -0.0888%,–
COc1ccc(NC(=O)CCc2c(C)nc3c(-c4ccc(F)cc4)c(C)nn3c2C)c(OC)c1,inactive: 6.61%,–
Cc1ccccc1CN1CCCN(CC(=O)Nc2ccc3c(c2)OCCO3)S1(=O)=O,inactive: 3.26%,–
CCOC(=O)c1noc2nc(C)n(Cc3ccc([N+](=O)[O-])cc3)c(=O)c12,inactive: -3.15%,–
Cc1cccc(Cn2nnc3c(=O)[nH]c(C4CCN(C(=O)c5ccc(F)cc5)CC4)nc32)c1,inactive: 1.87%,–
CN1CCN(C(CNC(=O)c2ccccc2)c2ccc3c(c2)OCO3)CC1 (stereo unspecified),inactive: -0.909%,–
O=C(NCc1cccc(Cl)c1)C1CCCN(c2ncnc3onc(-c4ccc(F)cc4)c23)C1 (stereo unspecified),inactive: -0.513%,–
CCn1c(=O)cc(SCC(=O)N2CCN(c3ccccc3F)CC2)c2ccccc21,inactive: -1.88%,–
CCOc1ccc(NC(=O)c2c(NC(=O)c3cccs3)sc3c2CCC(C(C)(C)C)C3)cc1 (stereo unspecified),inactive: 2.36%,–
